Over roughly 81,000 sequences, “one-hybrid fitness for binding parS DNA” has its median near -0.17; the highest 2% begin near 0.51. This is one part of the list.
B1: Caulobacter ParB omega fusion; a variant is named by its letters at X, in order, B8GW30 (parent)
chain: MESVVVGEPGMSEGRRGLGRGLSALLGEVDAAPAQAPGEQLGGSREAPIEILQRNPDQPRRTFREEDLEDLSNSIREKGVLQPILVRPSPDTAGEYQIVAGERAWRAAQRAGLKTVPIMVRELDDLAVLEIGIIENVQRADLNVLEEALSYKVLMEKFERTQENIAQTIGKSXSHVANXMRLLXLPDEVQSYLVSGELTAXHARAIAAAADPVALAKQIIEGGLSVRETEALARKAPNLSAGKSKGGRPPRVKDTDTQALESDLSSVLGLDVSIDHRGSTGTLTITYATLEQLDDLCNRLTRGI

Variants of: B1
Test: one-hybrid fitness for binding parS DNA (scaled: cognate 1, non-cognate 0); higher = stronger binding
Details: with parS DNA site
Outline: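 The reporter was HIS3, with the binding site 19 bp from the promoter, in E. coli USO used for bacterial one-hybrid selection of Caulobacter ParB libraries with four specificity codons randomised. Growth was on M9 lacking histidine, with 0.1 mM IPTG and 5 mM 3-AT, for 48 hours at 37°C. Illumina sequencing covered plasmids before and after selection; three replicate libraries were pooled and variants with under 10 reads dropped. A fitness score is the log change in variant-to-wild-type read ratio, rescaled to the cognate and non-cognate references.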

Variant | one-hybrid fitness for binding parS DNA
QCPT | ≤ 0.2
HYQR | ≤ 0.2
FMRC | ≤ 0.2
WNPL | ≤ 0.2
TACI | ≤ 0.2
AGPF | ≤ 0.2
AIAC | ≤ 0.2
KTEN | ≤ 0.2
KHGP | 0.201
WLST | ≤ 0.2
YIIS | ≤ 0.2
MGHL | ≤ 0.2
QDMD | ≤ 0.2
PAYG | ≤ 0.2
NNCE | ≤ 0.2
DSDS | ≤ 0.2
HLTM | ≤ 0.2
PDLV | ≤ 0.2
YSED | ≤ 0.2
VLGE | ≤ 0.2
PWAV | ≤ 0.2
TTSV | ≤ 0.2
TCDR | ≤ 0.2
TMGF | ≤ 0.2

Variant | one-hybrid fitness for binding parS DNA
RWRK | ≤ 0.2
RARP | ≤ 0.2
KSKI | ≤ 0.2
QLHL | ≤ 0.2
SPNC | ≤ 0.2
ILHC | ≤ 0.2
HPRC | ≤ 0.2
PHAP | ≤ 0.2
KYNN | 0.374
MKSC | ≤ 0.2
GSDL | ≤ 0.2
YQKT | ≤ 0.2
KREP | ≤ 0.2
PISS | ≤ 0.2
QHRL | ≤ 0.2
LQAD | ≤ 0.2
IPMG | ≤ 0.2
SQMC | ≤ 0.2
QWSL | ≤ 0.2
TTEG | ≤ 0.2
YAVV | ≤ 0.2
GAKN | ≤ 0.2
GHPL | ≤ 0.2
KVSR | ≤ 0.2

Variant | one-hybrid fitness for binding parS DNA
PCQS | ≤ 0.2
PRYR | ≤ 0.2
CFPD | ≤ 0.2
FHCR | ≤ 0.2
DPGR | ≤ 0.2
VQPC | ≤ 0.2
RTCD | ≤ 0.2
ALWL | ≤ 0.2
LCRY | ≤ 0.2
LLKR | ≤ 0.2
PGKQ | ≤ 0.2
VECS | ≤ 0.2
SRVC | ≤ 0.2
SINW | ≤ 0.2
ALAA | ≤ 0.2
RPYY | ≤ 0.2
YDVC | ≤ 0.2
HGKM | ≤ 0.2
VGGR | ≤ 0.2
DSVF | ≤ 0.2
IRQG | ≤ 0.2
LNVL | ≤ 0.2
GDYS | ≤ 0.2
RFII | ≤ 0.2

Variant | one-hybrid fitness for binding parS DNA
RQTH | ≤ 0.2
RVFP | ≤ 0.2
NVWR | ≤ 0.2
RNSC | 0.848
RHHA | 0.526
MGAV | ≤ 0.2
ATDC | ≤ 0.2
VYIG | ≤ 0.2
QMKK | ≤ 0.2
FEQR | ≤ 0.2
MKKG | ≤ 0.2
RENM | ≤ 0.2
TYSC | ≤ 0.2
QFNL | ≤ 0.2
KFHR | ≤ 0.2
VYVR | ≤ 0.2
LKNM | ≤ 0.2
CCKC | ≤ 0.2
RFNI | ≤ 0.2
VVVW | ≤ 0.2
FMFS | ≤ 0.2
NTQC | ≤ 0.2
HESS | ≤ 0.2
RSAE | ≤ 0.2

Variant | one-hybrid fitness for binding parS DNA
PSMR | ≤ 0.2
LNDT | ≤ 0.2
SFSY | ≤ 0.2
QDKD | ≤ 0.2
DLRG | ≤ 0.2
PKCT | ≤ 0.2
FDNN | ≤ 0.2
RQAK | ≤ 0.2
PAKY | ≤ 0.2
SRAE | ≤ 0.2
QNWR | ≤ 0.2
SPGP | ≤ 0.2
ICPG | ≤ 0.2
DTCE | ≤ 0.2
PMTG | ≤ 0.2
FPQG | ≤ 0.2
DQTV | ≤ 0.2
FCYP | ≤ 0.2
SRSD | ≤ 0.2
MLNS | ≤ 0.2
ANLC | ≤ 0.2
VIDT | ≤ 0.2
NAAS | ≤ 0.2
HKWG | ≤ 0.2

Variant | one-hybrid fitness for binding parS DNA
RIER | ≤ 0.2
GCAS | ≤ 0.2
GATM | ≤ 0.2
RILC | 0.97
HIYP | ≤ 0.2
AEST | ≤ 0.2
GPPE | ≤ 0.2
FWKN | ≤ 0.2
TVVT | ≤ 0.2
QSDW | ≤ 0.2
GLSV | ≤ 0.2
NFRG | ≤ 0.2
PVPN | ≤ 0.2
RRYS | 0.68
LTHF | ≤ 0.2
SGSY | ≤ 0.2
GVYS | ≤ 0.2
DVQR | ≤ 0.2
SWMA | ≤ 0.2
LTNN | ≤ 0.2
AKPQ | ≤ 0.2
GANA | ≤ 0.2
MSAS | ≤ 0.2
LNRV | ≤ 0.2

Variant | one-hybrid fitness for binding parS DNA
CSAH | ≤ 0.2
LRIP | ≤ 0.2
RHED | ≤ 0.2
YYNL | ≤ 0.2
QQRR | ≤ 0.2
TTEV | ≤ 0.2
SAED | ≤ 0.2
RDYY | ≤ 0.2
CCYA | ≤ 0.2
QDLT | ≤ 0.2
MSIL | ≤ 0.2
THLD | ≤ 0.2
CVCF | ≤ 0.2
TQNV | ≤ 0.2
PAEP | ≤ 0.2
YLRS | ≤ 0.2
GNYS | ≤ 0.2
HGIC | ≤ 0.2
RRLV | ≤ 0.2
IRDI | ≤ 0.2
NQFR | ≤ 0.2
RHRF | ≤ 0.2
RKDR | ≤ 0.2
RVTT | 0.949

Variant | one-hybrid fitness for binding parS DNA
LSNK | ≤ 0.2
RVEA | 0.483
NHIT | ≤ 0.2
HQLG | ≤ 0.2
GTWI | ≤ 0.2
GKTA | ≤ 0.2
FSWG | ≤ 0.2
IVIS | ≤ 0.2
RRAF | ≤ 0.2
WCYG | ≤ 0.2
PHHR | ≤ 0.2
RHLG | 0.967
PQRG | ≤ 0.2
CKKK | ≤ 0.2
RDHG | ≤ 0.2
FVWS | ≤ 0.2
REKN | ≤ 0.2
NGHC | ≤ 0.2
FQNA | ≤ 0.2
KETN | ≤ 0.2
YISS | ≤ 0.2
HSDL | ≤ 0.2
PKMR | ≤ 0.2
GAQR | ≤ 0.2

Variant | one-hybrid fitness for binding parS DNA
DLVK | ≤ 0.2
TQTV | ≤ 0.2
RQAL | ≤ 0.2
QESM | ≤ 0.2
PIER | ≤ 0.2
MRCG | ≤ 0.2
AKHQ | ≤ 0.2
PDFL | ≤ 0.2
PYRM | ≤ 0.2
GSGM | ≤ 0.2
GFIT | ≤ 0.2
YLIY | ≤ 0.2
FKLV | ≤ 0.2
PTWE | ≤ 0.2
WGGR | ≤ 0.2
VVNF | ≤ 0.2
TKYV | ≤ 0.2
NLSC | ≤ 0.2
GTVQ | ≤ 0.2
SPLF | ≤ 0.2
PGAL | ≤ 0.2
GAST | ≤ 0.2
FIAR | ≤ 0.2
NDLC | ≤ 0.2

Variant | one-hybrid fitness for binding parS DNA
RRML | ≤ 0.2
VTDW | ≤ 0.2
RWQH | ≤ 0.2
PCCV | ≤ 0.2
MTRF | ≤ 0.2
LWSL | ≤ 0.2
GSMG | ≤ 0.2
SDPC | ≤ 0.2
LHPR | ≤ 0.2
EQSY | ≤ 0.2
LAVF | ≤ 0.2
RRPP | ≤ 0.2
ANAR | ≤ 0.2
PANT | ≤ 0.2
PNCT | ≤ 0.2
YGVF | ≤ 0.2
LPTA | ≤ 0.2
SVWC | ≤ 0.2
DYYS | ≤ 0.2
TASD | ≤ 0.2
CHRT | ≤ 0.2
IREV | ≤ 0.2
TYIL | ≤ 0.2
HEPQ | ≤ 0.2

Variant | one-hybrid fitness for binding parS DNA
ERPV | ≤ 0.2
QHTM | ≤ 0.2
MLVM | ≤ 0.2
GDGE | ≤ 0.2
VLFP | ≤ 0.2
ATRG | ≤ 0.2
WPYR | ≤ 0.2
ARRL | ≤ 0.2
LIQS | ≤ 0.2
MCRL | ≤ 0.2
ETDR | ≤ 0.2
LDHL | ≤ 0.2
HGKS | ≤ 0.2
NMPG | ≤ 0.2
WKCR | ≤ 0.2
GHSK | ≤ 0.2
LLQW | ≤ 0.2
VMNC | ≤ 0.2
VKTT | ≤ 0.2
YMAD | ≤ 0.2
PREP | ≤ 0.2
QMLF | ≤ 0.2
THTY | ≤ 0.2
GKGR | ≤ 0.2

Variant | one-hybrid fitness for binding parS DNA
QNQH | ≤ 0.2
YFMS | ≤ 0.2
KNAS | ≤ 0.2
WRGG | ≤ 0.2
DDTT | ≤ 0.2
ACCR | ≤ 0.2
KLNE | ≤ 0.2
SDPM | ≤ 0.2
APIT | ≤ 0.2
RVII | ≤ 0.2
HIWR | ≤ 0.2
HCFF | ≤ 0.2
HWPI | ≤ 0.2
LAFG | ≤ 0.2
TRAY | ≤ 0.2
CGEV | ≤ 0.2
EWRG | ≤ 0.2
APIW | ≤ 0.2
CFPL | ≤ 0.2
LFSF | ≤ 0.2
KMKM | ≤ 0.2
VYNP | ≤ 0.2
SPKC | ≤ 0.2
MIVI | ≤ 0.2

Variant | one-hybrid fitness for binding parS DNA
GKAR | ≤ 0.2
HGTP | ≤ 0.2
PRTL | ≤ 0.2
VKIQ | ≤ 0.2
TESR | ≤ 0.2
HTCF | ≤ 0.2
CCYD | ≤ 0.2
LKVY | ≤ 0.2
DVIV | ≤ 0.2
RVPI | ≤ 0.2
QMDG | ≤ 0.2
SNEP | ≤ 0.2
QTQQ | ≤ 0.2
RIDI | ≤ 0.2
FVTQ | ≤ 0.2
QLCI | ≤ 0.2
QHFR | ≤ 0.2
NATF | ≤ 0.2
